Test results reported in PMC4336329 (PLoS ONE, 2015).
Among all 310,000 compounds or so, about 2,200 (0.71%) showed an effect of 50% or more. Effects have a minus sign here. Some of the results follow.

Biological target: human ether-à-go-go-related gene (hERG) potassium channel (human, UniProt Q12809)
Assay: primary screen, population patch clamp on CHO cells stably expressing hERG

Chain of human ether-à-go-go-related gene (hERG) potassium channel (Q12809 whole entry, looked up): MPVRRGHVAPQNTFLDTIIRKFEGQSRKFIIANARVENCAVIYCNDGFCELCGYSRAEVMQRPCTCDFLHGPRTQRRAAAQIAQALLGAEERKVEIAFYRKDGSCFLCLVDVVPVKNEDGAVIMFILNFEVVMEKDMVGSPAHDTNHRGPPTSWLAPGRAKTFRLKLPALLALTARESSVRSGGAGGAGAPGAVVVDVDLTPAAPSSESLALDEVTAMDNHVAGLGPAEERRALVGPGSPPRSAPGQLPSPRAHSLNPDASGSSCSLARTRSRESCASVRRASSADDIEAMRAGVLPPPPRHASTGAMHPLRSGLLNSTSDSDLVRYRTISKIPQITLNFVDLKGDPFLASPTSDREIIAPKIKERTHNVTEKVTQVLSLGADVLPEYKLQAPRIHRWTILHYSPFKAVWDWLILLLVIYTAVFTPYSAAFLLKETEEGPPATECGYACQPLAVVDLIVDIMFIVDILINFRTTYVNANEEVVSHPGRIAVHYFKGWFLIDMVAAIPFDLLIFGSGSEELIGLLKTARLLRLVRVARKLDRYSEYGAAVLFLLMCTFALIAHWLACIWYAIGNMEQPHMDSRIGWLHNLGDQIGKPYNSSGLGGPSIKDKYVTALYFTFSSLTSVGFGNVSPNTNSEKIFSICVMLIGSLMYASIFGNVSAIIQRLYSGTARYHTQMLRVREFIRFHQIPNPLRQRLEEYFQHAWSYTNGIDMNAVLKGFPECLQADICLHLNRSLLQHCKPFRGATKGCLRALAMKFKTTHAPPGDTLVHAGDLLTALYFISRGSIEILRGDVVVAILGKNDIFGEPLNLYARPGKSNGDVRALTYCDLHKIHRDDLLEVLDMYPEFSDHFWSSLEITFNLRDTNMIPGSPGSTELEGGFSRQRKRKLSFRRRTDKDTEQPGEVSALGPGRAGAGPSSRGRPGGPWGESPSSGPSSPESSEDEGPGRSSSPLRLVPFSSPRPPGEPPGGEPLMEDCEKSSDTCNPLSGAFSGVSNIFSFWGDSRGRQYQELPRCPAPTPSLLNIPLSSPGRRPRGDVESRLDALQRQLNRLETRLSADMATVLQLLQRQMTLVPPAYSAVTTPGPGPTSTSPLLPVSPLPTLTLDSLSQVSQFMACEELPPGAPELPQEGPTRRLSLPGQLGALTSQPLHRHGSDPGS

| Compound | hERG current change (%, negative = inhibition) at 1uM |
| --- | --- |
| CCCCn1c(=O)[nH]c(=O)c2c1nc(-c1ccsc1)n2Cc1ccccc1 | 1.49% |
| CCOc1ccc(/C(O)=C2/C(=O)C(=O)N(c3nc(C)c(C)s3)C2c2ccco2)cc1 (stereo not shown) | 2.89% |
| Nc1ncc2c(n1)CCN(c1ccc([N+](=O)[O-])cc1)C2 | -4.4% |
| CC(=O)c1ccc(NC(=O)COC(=O)CCN2C(=O)c3cccc([N+](=O)[O-])c3C2=O)cc1 | 16% |
| CCOC(=O)Cc1csc(N/N=C/c2ccc(Cl)cc2)n1 | 17.8% |
| COc1cc(OC)c(OC)cc1/C=C/c1cc(C(F)(F)F)[nH]c(=O)n1 | 19% |
| COc1ccc(N2CC(NC(=O)c3cccc4ccccc34)CC2=O)cc1OC (stereo not shown) | 16.4% |
| Cc1cc(Br)cc2c1N(C)C(=O)C2(c1ccc(O)cc1)c1ccc(O)cc1 | 12% |
| O=C(COC(=O)c1ccc(Cl)c(S(=O)(=O)N2CCc3ccccc3C2)c1)Nc1ncc(Cl)cc1Cl | 5.29% |
| O=C(Nc1cccc(F)c1)N1CC=C(c2ccc(Cl)cc2)CC1 | 14.4% |
| CCN(c1cccc(C)c1)S(=O)(=O)c1cn(CC(=O)OC)c2ccc([N+](=O)[O-])cc12 | 13.4% |
| CCc1nnc(N2C(=O)c3ccccc3C2(O)c2ccccc2)s1 (stereo not shown) | 3.79% |
| NC(=O)c1c(NC(=O)CN2CCN(S(=O)(=O)c3ccccc3)CC2)sc2c1CCC2 | 8.55% |
| COc1cc(NC(=S)N2CCN(C)CC2)c(OC)cc1Cl | 1.79% |
| Cc1nc2c3cc(F)ccc3n(Cc3ccc(F)cc3)c2s1 | 12.4% |
| Cc1cc2cc(CN(Cc3nnnn3C3CCCCC3)CC3CCCO3)c(=O)[nH]c2cc1C (stereo not shown) | 9.82% |
| CN1CCN(C(=O)c2cc3nc(-c4ccco4)cc(C(F)(F)F)n3n2)CC1 | 0.742% |
| CC[n+]1cc(-c2ccccc2)nc(N2CCOCC2)n1.[I-] | 12.5% |
| CC1(C2CC2)NC(=O)N(CC(=O)NCc2ccc(Cl)cc2Cl)C1=O (stereo not shown) | 2.44% |
| COCCCn1c(=N)c(C(=O)NCC2CCCO2)cc2c(=O)n3ccccc3nc21 (stereo not shown) | -44.3% |
| Cc1ccc2c(CC(=O)NCC3(N4CCOCC4)CCCCC3)coc2c1C | -5.15% |
| CC(O)[C@H]1CNC(=O)C(=O)N1CCc1cc(C(F)(F)F)cc(C(F)(F)F)c1 (stereo partly shown) | 15.9% |

| Compound | hERG current change (%, negative = inhibition) at 1uM |
| --- | --- |
| COC(=O)COc1ccc2c(=O)c(Oc3ccccc3Br)coc2c1 | 4.12% |
| Cl.O=C(NCCN1CCOCC1)c1ccc(Cl)c(S(=O)(=O)N2CCCCCC2)c1 | -10.3% |
| Cc1c(NS(=O)(=O)c2cccc(C(=O)OCC(=O)N(C)C3CCCCC3)c2)c(=O)n(-c2ccccc2)n1C | 11.7% |
| O=C(CSc1ccc2c(c1)OCCO2)Nc1ccc(N2CCOCC2)cc1 | 11.6% |
| C=CCN(CC=C)C(=S)NC(=O)Cc1cccc2ccccc12 | 5.08% |
| CC(C)(C)c1ccc(-c2noc(CCC(=O)NCc3ccco3)n2)cc1 | 6.44% |
| CN(CC1CCCO1)S(=O)(=O)c1ccc(C(=O)Nc2nccs2)cc1 (stereo not shown) | 0.708% |
| CC(NC(=O)C1CC1)C(c1cccs1)N1CCN(c2ccccc2)CC1 (stereo not shown) | 11.8% |
| COC(=O)[C@H](Cc1c[nH]c2ccccc12)NC(=O)NCc1ccccc1 | 10.8% |
| CCOc1ccc(N(CC(=O)Nc2ccc3c(c2)OCCO3)S(=O)(=O)c2c(C)noc2C)cc1 | 17% |
| CC(=O)NCCc1nc2cc(NC(=O)c3cccs3)ccc2n1C | 9.61% |
| CC(C)=C1C2CCC1C1C(=O)N(c3nc(-c4ccc(C(C)C)cc4)c(C)s3)C(=O)C21 (stereo not shown) | -6.97% |
| COc1ccc(-c2noc(N3CCC(C(=O)Nc4ccc(OC)cc4OC)CC3)n2)cc1 | 0.99% |
| CCn1nc(C(=O)Nc2nc3ccc(C)cc3s2)c2ccccc2c1=O | 6.16% |
| Cc1ccccc1NC(=O)Cc1nc(COC(=O)c2ccc(S(C)(=O)=O)c([N+](=O)[O-])c2)cs1 | 4.02% |
| CCC1=C(C)C(N2CCOCC2)=NP(N2CCOCC2)(N2CCOCC2)=N1 | 9.68% |
| CCN1CCN(C(=O)C2CCCN(S(=O)(=O)c3cc(Cl)ccc3Cl)C2)CC1 (stereo not shown) | 3.07% |
| CC1(C(=O)O)CCC(C(=O)Nc2cccc(F)c2)C1(C)C (stereo not shown) | 2.32% |
| COc1ccccc1Oc1coc2c(CN3CCOCC3)c(O)ccc2c1=O | 3.02% |
| O=C(c1ccc2c(=O)n(CC3CCCO3)c(=S)[nH]c2c1)N1CCN(c2ccccc2)CC1 (stereo not shown) | 3.81% |
| O=C(Nc1ccc(N2CCOCC2)cc1)C1CCCCC1 | 7.01% |
| N#Cc1ccc(S(=O)(=O)NC2CCN(Cc3ccccc3)CC2)cc1 | -5.66% |

| Compound | hERG current change (%, negative = inhibition) at 1uM |
| --- | --- |
| Nc1nccnc1C(=O)OCC(=O)C12CC3CC(CC(C3)C1)C2 | -0.801% |
| Cc1cc(C)c(S(=O)(=O)NCc2ccncc2)c(C)c1 | 5.64% |
| COc1ccc(OC)c(CN2CCN(S(=O)(=O)c3ccccc3)CC2)c1 | 10.6% |
| COc1ccc(Cn2c(N)c(C(=O)NCc3ccco3)c3nc4ccccc4nc32)cc1OC | 5.43% |
| Cc1ncc([N+](=O)[O-])n1CCOC(=O)c1ccc(Cl)cc1Cl | -4.3% |
| NC(=O)C1CCCN(Cc2ccc(Cl)cc2)C1 (stereo not shown) | 8.74% |
| CC1(C)Cc2c(c(N3CCCC3)nc3sc4c(N5CCNCC5)ncnc4c23)CO1 | 7.71% |
| COc1ccc(NC(=O)c2noc(C(C)C)c2[N+](=O)[O-])cc1 | 13.6% |
| O=C(O)c1ccc(Cl)cc1Nc1nc2cc(Cl)ccc2o1 | 17.4% |
| CC(C)(C)CC(=O)Nc1nnc(SCC(=O)N2CCCCC2)s1 | 13.9% |
| Cc1ccc(NC(=O)CSc2nnnn2C)cc1S(=O)(=O)N(C)C | 6.72% |
| CCC(C)(C)C1CCC(NC(=O)c2ccc(S(=O)(=O)N3CCOCC3)cc2)CC1 (stereo not shown) | 9.12% |
| COc1ccc(-n2nc(C(=O)N3CCC(N4CCCCC4)CC3)c3c4ccccc4n(C)c3c2=O)cc1 | 14% |
| COCCNC(=O)C(c1ccc(O)cc1)N(Cc1ccco1)C(=O)CCC(=O)Nc1ccccn1 (stereo not shown) | 17.3% |
| O=C(COC(=O)CCC(=O)c1cccs1)NCc1ccc(Cl)cc1 | 7.78% |
| O=C(CSc1nccn1Cc1ccc(F)cc1)NC1CCCC1 | 9% |
| COc1ccc(OC)c(NC(=O)CSc2nccn2Cc2ccco2)c1 | 11.9% |
| CN1CCN(C(=O)/C=C\C(=O)O)CC1 | 3.44% |
| C=CCSc1nc(Cc2ccc(Cl)cc2)nc2ccccc12 | 4.6% |
| CC(C)n1nnnc1SCC(=O)N1CCN(C(=O)c2ccco2)CC1 | 7.08% |
| O=C(NC(=S)N1CCN(CCO)CC1)C12CC3CC(CC(C3)C1)C2 | 8.73% |
| Cc1ccc(-c2[nH]c3cc(C(=O)NCCCn4ccnc4)ccc3c(=O)c2O)cc1 | 11.2% |

| Compound | hERG current change (%, negative = inhibition) at 1uM |
| --- | --- |
| CCOC(=O)C(NCc1ccc2c(c1)OCO2)(NC(=O)CC)C(F)(F)F (stereo not shown) | 9.65% |
| CCCCc1nc2cc(C(=O)N3CCC(OCCOC)CC3)ccc2o1 | -1.54% |
| Cc1ccc(C2=NS(=O)(=O)N(C)C(C(=O)NC3CCCC3)=C2)cc1 | 1.97% |
| COc1cc(/C=N/NC(=O)CC(=O)NC2CCCCC2)ccc1O | 16.9% |
| Cc1ccc(N2C(=O)CC(N3CCSCC3)C2=O)c(C)c1 (stereo not shown) | 10.5% |
| Cc1cc(C)n(-c2ccc(C(=O)Nc3ccc4c(c3)OCCO4)cc2)n1 | -1.22% |
| Cc1ccc([N+](=O)[O-])cc1NC(=O)CSc1nncc2ccccc12 | 6.99% |
| N/C(=N\OC(=O)Nc1ccccc1)c1cccc(C(F)(F)F)c1 | 21.4% |
| COc1ccc(C(=O)Nc2ccc(S(=O)(=O)N3CCCCC3)cc2)cc1OC | -0.152% |
| O=C(O)Cc1sc(Nc2ccccc2)nc1-c1cccs1 | 16.4% |
| CCOc1ccc(C(c2c(O)nc(SC)n(C)c2=O)c2c(O)nc(SC)n(C)c2=O)cc1 | 8.22% |
| CC(=O)c1ccc(S(=O)(=O)NC2CC(=O)N(c3ccc4c(c3)OCCO4)C2)cc1 (stereo not shown) | 13.3% |
| Cc1csc(NC(=O)CCC(=O)N(CC(=O)NC2CCCC2)c2ccccc2)n1 | 9.57% |
| CCc1ccc(S(=O)(=O)NC2CCCCNC2=O)cc1 (stereo not shown) | 13% |
| CCc1ccc(N(CC(=O)Nc2ccccc2C(=O)N2CCOCC2)S(C)(=O)=O)cc1 | 8.28% |
| Cc1ccc(CONC(=O)c2ccc(OC(F)F)cc2)cc1 | 9.48% |
| O=C(Nc1ccc(F)cc1)C1CCCN(S(=O)(=O)c2cccc3cccnc23)C1 (stereo not shown) | -3.05% |
| Cc1ccc(NC(=O)CN2CCCCCC2)cc1[N+](=O)[O-] | 8.37% |
| COc1ccc(OC)c(C2=CC(=O)C[C@H](c3ccc4c(c3)OCO4)C2)c1 | -2.03% |
